From PubChem BioAssay AID488969 (Vanderbilt High Throughput Screening Facility, 2010)
Whole data set: some 110,000 compounds, median “z-score” near -0.1, cut for the highest 2% near 2. Some of the results follow.

The molecules below were run against Metabotropic glutamate receptor 8 (Rattus norvegicus) (UniProt P70579) (assay: mGluR8 Gi/Go-coupled signaling modulation – cell-based, rat, thallium flux, HTS, primary screen (AID 488969)). Settings: HEK293 rat mGluR8, GIRK (G protein-gated inwardly rectifying potassium channel) thallium flux, FluoZin2; at 10 µM; stronger effect = higher value; submaximal glutamate (EC20) added with thallium.
Chain of UniProt P70579 (P70579 whole entry, looked up): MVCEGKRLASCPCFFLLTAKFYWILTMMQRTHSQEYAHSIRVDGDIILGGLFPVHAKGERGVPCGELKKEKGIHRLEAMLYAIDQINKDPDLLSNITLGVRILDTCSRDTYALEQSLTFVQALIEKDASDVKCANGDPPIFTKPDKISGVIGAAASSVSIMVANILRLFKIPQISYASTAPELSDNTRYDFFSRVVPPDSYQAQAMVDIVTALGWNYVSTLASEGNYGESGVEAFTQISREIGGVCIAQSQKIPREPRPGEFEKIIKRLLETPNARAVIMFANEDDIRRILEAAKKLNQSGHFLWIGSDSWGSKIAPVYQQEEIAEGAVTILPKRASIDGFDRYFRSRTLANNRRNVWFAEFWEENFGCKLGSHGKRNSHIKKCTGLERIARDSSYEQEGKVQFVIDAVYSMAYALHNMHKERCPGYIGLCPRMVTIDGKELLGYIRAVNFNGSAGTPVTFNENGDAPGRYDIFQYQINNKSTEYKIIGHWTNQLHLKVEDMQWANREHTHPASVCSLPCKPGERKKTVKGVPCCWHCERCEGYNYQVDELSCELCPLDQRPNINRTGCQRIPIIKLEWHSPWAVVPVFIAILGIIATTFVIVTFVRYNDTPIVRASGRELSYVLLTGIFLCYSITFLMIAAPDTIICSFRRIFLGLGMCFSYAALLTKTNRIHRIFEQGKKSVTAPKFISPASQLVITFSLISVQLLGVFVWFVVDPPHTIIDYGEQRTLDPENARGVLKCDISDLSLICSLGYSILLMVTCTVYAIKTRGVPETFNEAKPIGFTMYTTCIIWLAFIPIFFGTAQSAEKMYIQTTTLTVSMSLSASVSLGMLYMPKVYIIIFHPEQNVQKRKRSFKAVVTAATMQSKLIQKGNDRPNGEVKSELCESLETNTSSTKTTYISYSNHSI

SMILES | z-score
CC/C(O)=C(/C#N)c1nnc2n1CCCCC2 | -0.23
O=C(CN1C(=O)c2cccc3cccc1c23)NCc1ccccn1 | -0.247
O=C(Nc1ccc2c(c1)OCO2)c1c(Cl)nc2sccn12 | -0.167
Cc1ccc2c(c1)C(O)(CC(=O)c1cccnc1)C(=O)N2 (stereo unspecified) | 0.195
Cc1c(NC(=O)c2ccc(Cl)s2)c(=O)n(-c2ccccc2)n1C | -0.0691
CCCNC(=S)N1CCC(NC(=O)C23CC4CC(CC(C4)C2)C3)CC1 | -0.385
COc1ccc(S(=O)(=O)NCCSCc2ccco2)cc1OC | -0.152
CCc1ccc[n+](-c2[nH]c(=O)sc2/C=N/NC([S-])=Nc2ccccc2)c1 | -0.612
Cc1ccc(C(=O)NNC(=O)C2CCN(Cc3ccc(Cl)c(Cl)c3)CC2)cc1 | -0.0746
Cc1cc2n(n1)SC(Nc1ccc(F)c(Cl)c1)N2 (stereo unspecified) | 0.258
Cc1nn(-c2nc3ccccc3[nH]2)c(N)c1-c1ccccc1 | 1.36
O=C(NCc1ccco1)c1ccc(Cl)c(S(=O)(=O)N2CCc3ccccc32)c1 | -0.377
COc1ccc(C2=NOC(C(=O)NCc3cccs3)C2)cc1OC (stereo unspecified) | -0.236
O=C(Cn1ccccc1=O)c1cccs1 | -0.75
CCN(CC)S(=O)(=O)c1cc([N+](=O)[O-])ccc1NNC(=O)Nc1ccccc1 | 0.283
COc1ccc(-n2nnnc2SCC(=O)c2ccc3c(c2)OCCO3)cc1 | 0.112
O=C(CN(Cc1cccs1)C(=O)CN1C(=O)COc2ccccc21)NCc1ccco1 | -0.343
CC(=O)OC(C#CCN1CCOCC1)c1ccccc1 (stereo unspecified) | -0.274
O=C1C(Cl)=C(NCCCN2CCOCC2)C(=O)N1CCc1ccccc1 | -0.296
Cc1nc2ccc(C(C(F)(F)F)(C(F)(F)F)C(F)(F)F)cc2[nH]1 | 0.0207
O=C(O)C1CC=CCC1C(=O)Nc1cccc(Cl)c1Cl (stereo unspecified) | 0.614
CCNc1ccc(C(=O)OCC(=O)c2cc(C)n(Cc3ccc4c(c3)OCO4)c2C)cc1[N+](=O)[O-] | -0.128
CC(C)C(=O)NC(=S)Nc1ccccc1F | -0.159
O=C(Nc1ccc(OC(=O)c2cccnc2)cc1)c1cccnc1 | -0.561

SMILES | z-score
Cc1ccc(NC2=Nc3ccccc3CC2)cc1 | 0.374
Cc1ccc2nc(NC(=O)c3cc(-c4ccco4)nc4ccccc34)sc2c1 | -0.874
COc1ccc(CN2C(=O)c3cccnc3C2O)cc1 (stereo unspecified) | 0.0391
O=C(Nc1ccccc1)N(CCN1CCOCC1)Cc1cccc(Cl)c1 | 0.391
Cc1cccc(/C=N/NC(=O)c2cc3c(s2)-c2ccccc2CC3)c1 | 0.103
Cc1ccc(NC2SC(=O)N(CC(=O)O)C2=O)cc1 (stereo unspecified) | 0.401
COc1ccc(CC(=O)NNC(=O)c2cccs2)cc1 | -0.223
O=C(/C=C/c1cccc([N+](=O)[O-])c1)NCC1CCCO1 (stereo unspecified) | -0.0579
C(=C\c1ccccc1)/CSc1nnc(-c2cnccn2)n1Cc1ccco1 | -1.46
CCOC(=O)CC(=O)CSc1nc(C)cc(C)c1C#N | -0.421
CCOC(=O)N1CCN(c2ncnc3c2cnn3-c2ccc(OC)cc2)CC1 | -0.81
O=C1c2ccccc2C(=O)N1CC#CCN1CCN(C(c2ccccc2)c2ccccc2)CC1 | 0.979
CC(=O)c1nn(-c2ccccc2)cc1C(=O)c1cccc(Br)c1 | 0.0368
O=C(Nc1nccs1)c1cn(-c2ccccc2)nc1-c1ccccc1 | 0.192
COc1ccc(S(=O)(=O)Nc2cc(C(C)C)c(O)cc2C)cc1 | -0.46
CC(C)N(C(=O)CSc1nc2c([nH]1)c(=O)n(C)c(=O)n2C)c1ccccc1 | -0.523
COc1ccc(Oc2nc(C)cc(C)c2S(=O)(=O)c2ccc(C)cc2)cc1 | -0.384
Nc1nnc(SCCCC(=O)c2ccccc2)s1 | -0.233
N#C/C(=C\c1ccc(-c2ccccc2[N+](=O)[O-])o1)C(=O)Nc1nc(-c2cccs2)cs1 | 1.35
COC(=O)Cn1c(=NC(=O)c2cc(OC)c(OC)c(OC)c2)sc2cc(OC)ccc21 | -0.073
O=C(CN1CCCN(S(=O)(=O)c2ccc(F)cc2)CC1)Nc1ccccc1Br | -1.12
CCc1nc(C)cn1S(=O)(=O)c1cc(Br)c(C)cc1OC | -0.193
CN1C(=O)CC(N2CCN(C(c3ccccc3)c3ccccc3)CC2)C1=O (stereo unspecified) | -0.247
c1ccc(-c2nn3c(C4COc5ccccc5O4)nnc3s2)cc1 (stereo unspecified) | -0.342

SMILES | z-score
CCn1c(=O)c2c(nc3n2CCS3)n(C)c1=O | -0.382
CCCC(=O)Nc1ccc(Br)cn1 | -0.389
O=C(Nc1ccccc1)c1ccc(NCc2ccco2)c(S(=O)(=O)N2CCOCC2)c1 | -1.07
Cc1cccc(N2CCN(C(=O)c3ccccc3NC(=O)C3CC=CCC3C(=O)O)CC2)c1 (stereo unspecified) | -0.57
Cc1ccc(NC(=O)C(OC(=O)c2ccc(NC(N)=O)cc2)c2ccccc2)cc1Cl (stereo unspecified) | -0.199
CCOC(=O)CSc1nnc(CCCCCN2C(=O)c3cccc4cccc(c34)C2=O)o1 | -0.835
O=c1c(C=Nc2cccc(C(F)(F)F)c2)c[nH]n1-c1cccc(Cl)n1 | -0.211
COc1ccc(NC(=O)CNc2cccc(C#N)c2)cc1Cl | 1.65
Clc1ccc2[nH]cc(-c3nnnn3-c3ccc4ccccc4c3)c2c1 | 0.0431
COc1ccc2c(c1)NC1(O)c3ccccc3C(=O)C21O (stereo unspecified) | 0.297
c1ccc(CSc2nnc(-c3ccco3)n2Cc2ccco2)cc1 | -0.985
CC(=O)Nc1ccc(C(=O)N/N=C/c2ccccc2OC(=O)c2ccc(Cl)cc2)cc1 | 0.108
CC(=O)Nc1ccc(Nc2nc(C)nc3c2oc2ccccc23)cc1 | -0.451
CCCCCCCCOC(=O)c1nc(Cl)c(Cl)c(N)c1Cl | -0.187
COc1ccc(-n2nc3ccccc3n2)cc1 | 0.249
O=C(NNS(=O)(=O)c1ccccc1C(F)(F)F)c1cccc(S(=O)(=O)Nc2ccccc2Cl)c1 | 0.213
O=C(O)CSCNC(=O)C12CC3CC(CC(C3)C1)C2 | 0.558
Cc1ccc(-c2nc(C)sc2CC(=O)Nc2cccc(C)c2C)cc1 | -0.072
COc1ccc(NC(=O)c2ccc(Br)o2)c([N+](=O)[O-])c1 | -0.122
Cn1ccnc1SCC(=O)c1cccc(Br)c1 | -1.32
CC(C)C(=O)Nc1ccc(C(=O)NNC(=O)CCCOc2ccc(Cl)cc2Cl)cc1 | -0.172
Cc1cc(C)cc(N(CC(=O)N2CCN(c3ccccc3)CC2)S(=O)(=O)c2c(C)noc2C)c1 | -0.0998
Clc1ccc(-c2nnc3cccc(Cl)n23)c(Cl)c1 | -0.181
